This passage reports binding results from publication PMC6426595.

Amino acid sequences for entries named in this document (tags omitted). A change or cut given only in a name is not applied to a line headed by its entry.
UniProt P54132: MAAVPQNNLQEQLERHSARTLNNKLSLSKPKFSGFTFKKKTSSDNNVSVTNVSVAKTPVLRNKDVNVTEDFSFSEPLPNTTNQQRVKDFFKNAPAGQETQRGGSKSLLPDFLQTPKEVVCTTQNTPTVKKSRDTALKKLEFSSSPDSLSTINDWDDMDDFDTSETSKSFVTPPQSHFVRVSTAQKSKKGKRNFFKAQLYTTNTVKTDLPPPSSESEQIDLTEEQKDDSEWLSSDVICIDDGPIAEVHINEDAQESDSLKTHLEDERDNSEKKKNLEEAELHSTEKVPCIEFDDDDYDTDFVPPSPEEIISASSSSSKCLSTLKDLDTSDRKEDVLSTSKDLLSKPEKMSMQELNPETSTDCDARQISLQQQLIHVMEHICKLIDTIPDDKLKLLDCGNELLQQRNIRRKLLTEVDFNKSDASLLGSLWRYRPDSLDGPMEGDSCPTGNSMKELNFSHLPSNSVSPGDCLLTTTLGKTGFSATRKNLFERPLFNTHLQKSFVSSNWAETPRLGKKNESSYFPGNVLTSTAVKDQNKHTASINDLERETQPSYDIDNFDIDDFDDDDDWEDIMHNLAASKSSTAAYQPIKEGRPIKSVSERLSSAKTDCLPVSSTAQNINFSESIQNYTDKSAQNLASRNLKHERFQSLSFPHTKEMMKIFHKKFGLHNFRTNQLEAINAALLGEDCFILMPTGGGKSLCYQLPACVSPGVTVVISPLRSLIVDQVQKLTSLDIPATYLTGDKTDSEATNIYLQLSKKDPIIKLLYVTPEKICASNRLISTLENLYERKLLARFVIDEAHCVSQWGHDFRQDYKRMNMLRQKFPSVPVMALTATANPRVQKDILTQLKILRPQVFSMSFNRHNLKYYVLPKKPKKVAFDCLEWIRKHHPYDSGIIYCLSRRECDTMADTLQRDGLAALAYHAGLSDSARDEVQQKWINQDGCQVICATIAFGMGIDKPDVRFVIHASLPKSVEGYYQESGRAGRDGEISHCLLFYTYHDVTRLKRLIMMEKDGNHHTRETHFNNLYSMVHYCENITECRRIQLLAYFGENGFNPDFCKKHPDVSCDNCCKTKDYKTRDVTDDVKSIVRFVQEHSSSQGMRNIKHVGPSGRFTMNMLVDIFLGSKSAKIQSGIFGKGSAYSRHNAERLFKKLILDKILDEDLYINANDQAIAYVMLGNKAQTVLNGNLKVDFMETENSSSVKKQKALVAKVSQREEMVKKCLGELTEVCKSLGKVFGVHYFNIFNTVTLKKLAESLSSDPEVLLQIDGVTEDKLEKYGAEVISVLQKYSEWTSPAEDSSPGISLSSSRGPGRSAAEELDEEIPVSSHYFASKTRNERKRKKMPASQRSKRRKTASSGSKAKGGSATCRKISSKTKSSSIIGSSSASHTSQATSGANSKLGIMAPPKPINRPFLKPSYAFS
UniProt P08659: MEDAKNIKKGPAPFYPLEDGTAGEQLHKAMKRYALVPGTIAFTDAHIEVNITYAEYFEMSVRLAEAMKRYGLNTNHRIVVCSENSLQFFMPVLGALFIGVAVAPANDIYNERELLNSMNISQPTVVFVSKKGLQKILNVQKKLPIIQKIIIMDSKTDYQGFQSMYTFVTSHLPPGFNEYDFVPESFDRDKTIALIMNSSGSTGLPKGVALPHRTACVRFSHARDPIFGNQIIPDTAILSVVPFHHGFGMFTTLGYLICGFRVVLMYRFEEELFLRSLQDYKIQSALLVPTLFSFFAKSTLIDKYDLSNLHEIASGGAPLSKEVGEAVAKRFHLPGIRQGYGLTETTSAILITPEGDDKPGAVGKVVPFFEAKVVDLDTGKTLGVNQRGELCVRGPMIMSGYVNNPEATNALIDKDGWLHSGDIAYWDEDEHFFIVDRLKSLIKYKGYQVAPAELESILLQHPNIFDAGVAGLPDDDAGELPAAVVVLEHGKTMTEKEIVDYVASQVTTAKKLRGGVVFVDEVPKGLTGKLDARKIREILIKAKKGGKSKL

These are yes or no findings as the source states them, for the method shown. For some assays here: In cells and extracts the contact can be indirect. Some entries that bind do so weakly or less than the wild type. For some assays here: Sequences can lack the tags named with a protein.

The target in assay [1] is T1, HPV11 E1 (yeast two-hybrid bait, fused to the GAL4 DNA-binding domain) (human papillomavirus type 11 (HPV11)) (UniProt P04014).
T1 sequence: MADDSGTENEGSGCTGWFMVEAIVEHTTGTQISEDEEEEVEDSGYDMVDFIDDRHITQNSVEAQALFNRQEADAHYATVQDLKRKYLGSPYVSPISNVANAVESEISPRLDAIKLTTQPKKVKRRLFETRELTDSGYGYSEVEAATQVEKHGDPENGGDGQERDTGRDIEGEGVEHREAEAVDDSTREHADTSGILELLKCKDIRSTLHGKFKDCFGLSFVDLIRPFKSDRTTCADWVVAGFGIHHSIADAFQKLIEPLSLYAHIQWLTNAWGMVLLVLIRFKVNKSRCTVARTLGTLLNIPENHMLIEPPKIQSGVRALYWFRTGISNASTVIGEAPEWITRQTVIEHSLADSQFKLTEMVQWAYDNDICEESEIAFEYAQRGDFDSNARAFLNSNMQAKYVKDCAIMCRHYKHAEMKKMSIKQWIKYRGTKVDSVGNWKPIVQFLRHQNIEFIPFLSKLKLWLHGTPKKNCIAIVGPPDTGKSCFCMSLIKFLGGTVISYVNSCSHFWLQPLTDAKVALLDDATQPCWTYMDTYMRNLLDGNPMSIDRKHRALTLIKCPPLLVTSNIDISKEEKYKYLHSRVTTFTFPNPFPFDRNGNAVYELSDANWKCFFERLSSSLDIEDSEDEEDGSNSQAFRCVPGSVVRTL
In words: two-hybrid; yeast; E1 baits fused to the GAL4 DNA-binding domain (pAS1) against a human lymphocyte cDNA library in pACT2 (GAL4 activation domain); beta-galactosidase activity measured.

In assay [2] the target is GST-E1 (191-649), HPV11 (human papillomavirus type 11 (HPV11)) (UniProt P04014). In words: pull-down; purified GST-E1 fragments or GST alone as bait, in vitro-translated BLM, E2 or luciferase as prey; ethidium bromide included in binding reactions as a control for contaminating DNA; only the target purified.
Assay [3] has as its target T2, GST-E1 (353-649), HPV11 (human papillomavirus type 11 (HPV11)) (UniProt P04014).
T2 sequence: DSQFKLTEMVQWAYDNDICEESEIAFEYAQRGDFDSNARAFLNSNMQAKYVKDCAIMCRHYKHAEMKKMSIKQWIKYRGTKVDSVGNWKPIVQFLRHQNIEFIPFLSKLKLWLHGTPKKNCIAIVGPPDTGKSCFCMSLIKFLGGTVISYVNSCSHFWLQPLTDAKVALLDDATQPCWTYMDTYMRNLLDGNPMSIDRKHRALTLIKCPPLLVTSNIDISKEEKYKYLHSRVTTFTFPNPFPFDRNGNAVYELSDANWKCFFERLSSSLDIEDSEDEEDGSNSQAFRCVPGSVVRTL
Described as above.

As to “BLM helicase fragment 1-514 (yeast two-hybrid prey, fused to the GAL4 activation domain) (from UniProt P54132 1-514) (domain or fragment)”, in assay [1], the binding result is “binds”.

Regarding “BLM helicase, in vitro translated (from UniProt P54132 1-1417)”, the binding entry in assay [2] and in assay [3] was “binds” in each case.

In the case of “firefly luciferase, in vitro translated (from UniProt P08659 1-550) (enzyme)”, the binding entry in assay [2] and in assay [3] was “no binding” each time.
